Experimental data from article PMC4336329 (PLoS ONE, 2015).
Screen size: about 310,000 compounds; about 2,200 (0.71%) showed an effect of 50% or more. Effects have a minus sign here. Some of the results follow.

The compounds below were run against human ether-à-go-go-related gene (hERG) potassium channel (human, UniProt Q12809) (assay: primary screen, population patch clamp on CHO cells stably expressing hERG).
Chain of human ether-à-go-go-related gene (hERG) potassium channel (Q12809 whole entry, looked up): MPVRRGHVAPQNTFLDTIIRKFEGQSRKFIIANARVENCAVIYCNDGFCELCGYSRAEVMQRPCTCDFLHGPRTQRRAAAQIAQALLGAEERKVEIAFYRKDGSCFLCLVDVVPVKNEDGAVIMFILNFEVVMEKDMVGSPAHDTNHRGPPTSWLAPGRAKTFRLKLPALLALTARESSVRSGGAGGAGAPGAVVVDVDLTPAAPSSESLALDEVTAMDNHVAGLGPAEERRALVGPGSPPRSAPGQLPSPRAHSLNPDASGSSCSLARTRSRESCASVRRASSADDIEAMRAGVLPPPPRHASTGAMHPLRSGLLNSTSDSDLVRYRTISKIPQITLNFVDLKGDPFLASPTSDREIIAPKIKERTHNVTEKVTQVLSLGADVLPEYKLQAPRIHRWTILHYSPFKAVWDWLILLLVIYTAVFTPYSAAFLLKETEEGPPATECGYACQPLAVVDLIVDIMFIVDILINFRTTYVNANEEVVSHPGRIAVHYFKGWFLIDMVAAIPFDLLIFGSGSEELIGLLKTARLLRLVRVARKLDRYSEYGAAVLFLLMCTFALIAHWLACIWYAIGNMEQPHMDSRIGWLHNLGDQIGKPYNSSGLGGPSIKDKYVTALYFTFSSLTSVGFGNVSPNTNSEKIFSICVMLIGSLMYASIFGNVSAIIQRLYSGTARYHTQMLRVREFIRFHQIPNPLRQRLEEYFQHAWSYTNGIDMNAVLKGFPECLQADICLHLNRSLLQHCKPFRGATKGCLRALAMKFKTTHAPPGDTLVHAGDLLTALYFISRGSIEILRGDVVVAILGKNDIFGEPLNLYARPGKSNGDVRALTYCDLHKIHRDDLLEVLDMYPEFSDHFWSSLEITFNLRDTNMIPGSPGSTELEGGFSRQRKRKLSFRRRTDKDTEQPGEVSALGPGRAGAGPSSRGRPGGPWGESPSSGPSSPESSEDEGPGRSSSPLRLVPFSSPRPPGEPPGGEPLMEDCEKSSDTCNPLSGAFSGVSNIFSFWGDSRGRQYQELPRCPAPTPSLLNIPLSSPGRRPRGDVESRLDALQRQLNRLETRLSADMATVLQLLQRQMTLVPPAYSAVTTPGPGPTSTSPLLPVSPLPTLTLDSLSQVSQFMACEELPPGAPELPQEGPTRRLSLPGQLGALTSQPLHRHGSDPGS

| Compound | hERG current change (%, negative = inhibition) at 1uM [%] |
| --- | --- |
| COCCCN1C(=O)C(=O)/C(=C(/O)c2ccccc2)C1c1ccc2c(c1)OCO2 (stereo not shown) | 12.7 |
| CC(=O)OC(COC1C[C@@H]2CC[C@@]1(C)C2(C)C)C[N+]1(C)CCCCC1.[I-] (stereo partly shown) | 9.41 |
| Cc1[nH]nc2c1C(c1cccs1)C(C#N)=C(N)O2 (stereo not shown) | 10.5 |
| O=C(O)c1ccccc1C(=O)c1ccc2c(c1)CCC2 | 14.9 |
| CCOc1ccc(CCN2C(=O)c3ccc(C(=O)O)cc3C2=O)cc1OCC | 8.73 |
| O=C(Nc1ccc(C(=O)O)cc1)/C(=C\C=C\c1ccccc1)NC(=O)c1ccc(Br)cc1 | 14.1 |
| Cc1cc(C)c2nc(SCC(=O)NCCC3=CCCCC3)cc(C)c2c1 | 9.04 |
| CNc1nc(NN)nc(Nc2ccccc2)n1 | 14.9 |
| CN1C(=O)c2ccccc2C(C(=O)NCc2ccco2)C1c1c[nH]c2ccccc12 (stereo not shown) | -3.31 |
| Cc1cccc(-n2c(C)nc3c(cnn3-c3ccc(F)cc3)c2=O)c1 | 7.93 |
| COc1ccc(NC(=S)N2CCN(S(=O)(=O)c3ccccc3)CC2)cc1OC | 10.8 |
| CC(C)C(OC(=O)c1ccco1)C(=O)NCc1ccc2c(c1)OCO2 (stereo not shown) | 2.57 |
| CCCCC(CC)C(=O)NCCCN1CCN(CCCNC(=O)C(CC)CCCC)CC1 (stereo not shown) | 3.41 |
| CCN(CC)c1ccc(NC(=O)CSc2nc(C)cc(=O)[nH]2)cc1 | 11.5 |
| Cc1cc([N+](=O)[O-])ccc1NC(=S)NC(=O)C(c1ccccc1)c1ccccc1 | 0.321 |
| COc1ccc(NC(=O)c2sc(N)nc2-c2ccccc2)cc1 | 2.98 |
| C#CCOCCOCCOCCNc1nc(N2CCN(C(=O)[C@H](CCC(=O)O)n3cc(C(N)[C@H](C)CC)nn3)CC2)nc(N2CCN(C(=O)[C@H](Cc3ccc(O)cc3)n3cc(C(N)[C@H](C)CC)nn3)CC2)n1.Cl (stereo partly shown) | 16.2 |
| CC(=O)NC(CCS(C)(=O)=O)C(=O)Nc1ccccc1Cl (stereo not shown) | 11.3 |
| CCCN(CCC)C(=O)C(CCC(=O)O)NC(=O)c1ccccc1 (stereo not shown) | 2.94 |
| C/C(=N/NC(=S)Nc1ccccc1)c1ccc2c(c1)OCO2 | 13.8 |
| CCCOc1ccc(-c2c(C(=O)N/N=C/c3ccccc3)nnn2-c2nonc2N)cc1 | 4.36 |
| O=C(O)Cc1csc(-c2ccccc2)n1 | 12.6 |

| Compound | hERG current change (%, negative = inhibition) at 1uM [%] |
| --- | --- |
| O=C(Cc1ccc(S(=O)(=O)N2CCCCC2)s1)Nc1cccc2ccccc12 | 12.8 |
| CCOc1ccccc1-c1nc2c([nH]1)c(=O)n(C)c(=O)n2C | 10.7 |
| CCOc1cccc(C2/C(=C(/O)c3ccc4c(c3)CC(C)O4)C(=O)C(=O)N2Cc2ccncc2)c1 (stereo not shown) | 27.6 |
| COc1cccc(-c2cc3nc4c(c(N5CCC6(CC5)OCCO6)n3n2)CCC4)c1 | 13.5 |
| CS(=O)(=O)N(CC(=O)N1CCN(c2cccc(Cl)c2)CC1)c1cccc(F)c1 | 1.97 |
| O=[N+]([O-])c1ccc(O)c(C=Nc2cccc3ccccc23)c1 | 11.9 |
| Oc1c(C=Nc2cccc3cccnc23)sc2ccccc12 | 13.4 |
| COc1cccc(/C=C2\SC(=S)N(N3CCOCC3)C2=O)c1OC | 6.61 |
| Cc1ccccc1N(CC(=O)NC1CCCCC1)C(=O)CCC(=O)Nc1nccs1 | 10.9 |
| COc1ccc(Oc2nccc(OC)c2C#N)cc1 | 3.18 |
| COc1ccc(C(=O)OCC(N)=O)cc1[N+](=O)[O-] | 3.78 |
| CC(C)[C@H](NC(=O)c1c(F)cccc1F)C(=O)Nc1cccc(Br)c1 | 9.63 |
| COc1ccc(-c2noc(CSc3nc(N)c(-c4ccccc4)c(=O)[nH]3)n2)cc1OC | 8.92 |
| C#CC[N+](C)(C)CCCCCCCC.[Br-] | 1.78 |
| Cc1nn(CC(=O)NCCc2cccs2)c(=O)c2cc3ccccc3n12 | 22.9 |
| COC(=O)c1ccc(NC(=O)CN2CCN(c3ccccc3)CC2)cc1 | -3.6 |
| Cc1cc(C)n(CC(=O)n2c(C)c(C)c3ccccc32)n1 | 14.4 |
| Cc1cccc(NS(=O)(=O)c2cccc3nsnc23)c1 | 0.0053 |
| CCC(Oc1ccccc1)C(=O)N1CCN(C(=O)C(CC)Oc2ccccc2)CC1 (stereo not shown) | -4.43 |
| CCCc1ccc2oc(C(=O)NCCN3CCCC(C(N)=O)C3)c(C)c2c1 (stereo not shown) | -8.03 |
| O=C(CCNC(=O)C1CCN(S(=O)(=O)c2ccccc2)CC1)NCc1ccc(Cl)cc1Cl | -12.1 |
